In all, about 310,000 compounds went through this assay and about 2,200 (0.71%) showed an effect of 50% or more. Effects have a minus sign here. This is one part of the list.
Biological target: human ether-à-go-go-related gene (hERG) potassium channel (human, UniProt Q12809)
Assay: primary screen, population patch clamp on CHO cells stably expressing hERG

human ether-à-go-go-related gene (hERG) potassium channel, sequence (Q12809 whole entry, looked up): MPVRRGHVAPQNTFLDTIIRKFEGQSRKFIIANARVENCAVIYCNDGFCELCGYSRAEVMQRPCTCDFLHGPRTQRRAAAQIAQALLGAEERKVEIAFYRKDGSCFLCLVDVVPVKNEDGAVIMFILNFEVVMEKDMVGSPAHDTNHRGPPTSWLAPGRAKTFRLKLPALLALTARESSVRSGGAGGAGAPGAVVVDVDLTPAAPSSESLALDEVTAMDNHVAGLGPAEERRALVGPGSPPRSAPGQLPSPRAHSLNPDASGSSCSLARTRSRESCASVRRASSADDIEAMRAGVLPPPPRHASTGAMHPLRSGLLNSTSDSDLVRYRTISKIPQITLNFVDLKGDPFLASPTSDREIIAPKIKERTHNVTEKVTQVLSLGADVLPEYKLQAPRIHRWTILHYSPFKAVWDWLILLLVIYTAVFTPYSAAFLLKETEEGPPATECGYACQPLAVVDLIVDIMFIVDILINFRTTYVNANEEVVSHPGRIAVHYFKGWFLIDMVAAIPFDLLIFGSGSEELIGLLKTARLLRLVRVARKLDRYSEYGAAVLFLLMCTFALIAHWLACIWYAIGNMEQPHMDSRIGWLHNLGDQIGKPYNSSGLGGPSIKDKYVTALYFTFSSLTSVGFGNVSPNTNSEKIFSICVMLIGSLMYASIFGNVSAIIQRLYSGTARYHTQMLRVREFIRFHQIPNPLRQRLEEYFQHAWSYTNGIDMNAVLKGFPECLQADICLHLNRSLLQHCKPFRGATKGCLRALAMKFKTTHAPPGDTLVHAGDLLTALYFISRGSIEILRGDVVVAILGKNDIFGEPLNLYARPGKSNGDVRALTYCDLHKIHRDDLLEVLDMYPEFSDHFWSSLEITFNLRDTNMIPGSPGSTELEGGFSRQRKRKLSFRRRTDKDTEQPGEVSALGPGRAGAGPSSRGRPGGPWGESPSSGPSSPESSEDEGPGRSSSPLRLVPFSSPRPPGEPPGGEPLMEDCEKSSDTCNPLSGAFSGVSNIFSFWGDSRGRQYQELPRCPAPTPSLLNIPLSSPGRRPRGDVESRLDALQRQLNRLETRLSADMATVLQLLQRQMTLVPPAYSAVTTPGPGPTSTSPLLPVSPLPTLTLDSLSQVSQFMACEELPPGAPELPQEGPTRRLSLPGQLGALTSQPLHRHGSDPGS

Compound	hERG current change (%, negative = inhibition) at 1uM [%]
COc1ccc(S(=O)(=O)N2CCCCC2)cc1NC(=O)c1ccc(N2CCCC2=O)cc1	0.726
CC(C)N(C(=O)Cn1cc(S(=O)(=O)CC(=O)NCc2ccccc2)c2ccccc21)C(C)C	9.05
CCOC(=O)Cn1nc(/C=C/c2ccccc2)ccc1=O	14.4
O=C(NC(=S)Nc1ccc(Cl)cn1)C(c1ccccc1)c1ccccc1	4.32
O=C(c1ccco1)N1CCN(C(=S)Nc2cccc([N+](=O)[O-])c2)CC1	-14.2
CCN(CC)C(=O)CSc1nnc(-c2cc3ccccc3cc2O)n1CC	-7.92
COc1cccc(N2CCN(c3ccc4nnc(CCC(=O)Nc5ccccn5)n4n3)CC2)c1	-24.6
COc1cc(/C=N/n2nnnc2N)cc(OC)c1OC	4.9
COc1ccc(CCNc2ncnc3c2c(C)c(C)n3CCCN(C)C)cc1OC	7.69
Cc1ccc(NC(=O)CNC(=O)COc2ccccc2)nc1	0.125
C#C[C@@]1(O)CCC2C3CCC4=C/C(=N/OCC(=O)NC(CCC(N)=O)C(=O)O)CC[C@]4(C)C3CC[C@@]21C (stereo partly shown)	15.5
C/C(=N\NC(=O)c1cc(-c2cccs2)nc2ccccc12)c1ccccn1	14.9
O=C(Cc1ccccc1)Nc1nnc(-c2ccco2)o1	4.19
CCc1ccc(C(=O)CCC(=O)Nc2ccc(OC)c(S(=O)(=O)N3CCCCC3)c2)cc1	-1.32
COC(=O)c1c(C)oc2ccc(NS(=O)(=O)c3cc(OC)ccc3OC)cc12	15.1
O=C(CSc1cn[nH]n1)Nc1cccc(C(=O)O)c1	7.78
CCOc1ccc(NS(=O)(=O)c2ccc(C(=O)NCC(c3ccco3)N3CCCC3)cc2)cc1 (stereo not shown)	1.37
Cc1ccccc1C(=O)NCCSc1ccccc1	1.69
CC(=O)/C(=N\Nc1ccccc1)Oc1ccc([N+](=O)[O-])cc1	-16.2
Cc1c(C(=O)N2CCOCC2)[nH]c2ccc(OCc3ccccc3)cc12	-1.19
CCN(CC)CP(=O)(c1ccccc1)c1ccccc1	3.14
CCN(Cc1cc2cc(C)ccc2[nH]c1=O)C(=O)c1cccc(OC)c1	4.16
CN(C)Cc1c(C(=O)Nc2ccccc2)[nH]c2ccccc12	0.151
S=c1[nH]nc(C23CC4CC(CC(C4)C2)C3)n1Cc1ccco1	11.5
COC(=O)c1c(SCc2cccc3ccccc23)nc(=O)[nH]c1C	11.7
COc1ccc(CCn2c(C)cc(C(=O)CSc3nnnn3C)c2C)cc1	8.71
Cc1nc2nc(-c3ccc(Cl)cc3)nn2c(C)c1Cl	13.4
O=C(O)c1cccc(Cn2cccn2)c1	10.9

Compound	hERG current change (%, negative = inhibition) at 1uM [%]
COCCNC(=O)Nc1ccc2nc(C)sc2c1	1.91
O=C(NCC1CCCO1)c1ccc(COc2ccccc2Br)cc1 (stereo not shown)	5.87
O=C1c2ccccc2C(=O)N1CC1c2ccccc2CCN1C(=O)CN1CCOCC1 (stereo not shown)	2.79
Cc1ccc(-n2ccnc(SCC(=O)NC3CCCCC3)c2=O)cc1F	14.5
CC(=O)Nc1ccc(S(=O)(=O)NNC(=O)NC23CC4CC(CC(C4)C2)C3)cc1	10.3
O=C(NC1CCCCC1)N(Cc1nc2ccccc2c(=O)[nH]1)C1CCCCC1	12
CCOc1cccc(C(=O)Nc2ccccc2OC(F)F)c1	-5.79
CC(C)C[C@H](NC(=O)[C@H]1N2C(=O)c3ccccc3C2SC1(C)C)C(=O)N[C@@H](Cc1ccccc1)C(=O)O (stereo partly shown)	9.27
CC(=O)NCCc1ccc(S(=O)(=O)Nc2cccnc2)cc1	15
COC(=O)c1cnc(N2CCOCC2)nc1C(F)(F)F	7.52
O=C(Nc1cccc(F)c1)C1CCN(C(=O)c2ccc(Br)cc2)CC1	-22.2
CC(C)(C)c1ccc(C(=O)CC(Sc2ccc(Cl)cc2)C(=O)O)cc1 (stereo not shown)	11.1
O=C(CCCN1C(=O)/C(=C/c2ccccc2Cl)SC1=S)NNC(=O)c1ccc(Cl)cc1Cl	13
Cc1sc2nc(COC(=O)c3ccc(O)cc3)[nH]c(=O)c2c1C	18.4
Cc1ccccc1C(=O)NNC(=O)CCc1ccccc1	16.5
CCOC(=O)c1sc(NC(=O)C(CC)OC(=O)C(CC(C)C)NC(=O)c2ccccc2)nc1C (stereo not shown)	7.91
O=C(Cn1c(=S)[nH]c2ccccc2c1=O)N1CCC2(CC1)OCCO2	12.5
Cc1cccc(NC(=O)CSc2nccn2Cc2ccco2)c1	11.3
CC(=O)c1c(C)[nH]c(C(=O)CN2CCN(S(=O)(=O)c3ccccc3[N+](=O)[O-])CC2)c1C	5.11
COc1ccc(CN(CC(=O)NCc2ccc3c(c2)OCO3)C(=O)c2csnn2)cc1	-12.2
COc1ccc(CN2CCN(C(C)C(=O)NC(C)c3ccc(F)cc3)CC2)cc1F (stereo not shown)	-17.3
Cc1nn(C(C)C(=O)NCc2ccccc2Cl)c(=O)c2c1sc1ccccc12 (stereo not shown)	4.93
O=C(CNC1CCCC1)Nc1cc(Cl)ccc1[N+](=O)[O-].O=C(O)C(=O)O	13.6
COC(=O)c1cccc(C(=O)N2CCC(CO)(CCc3ccccc3)CC2)c1	3.49
Cc1ccc(OCC(=O)Nc2ccc(Cl)cc2C(=O)c2ccccc2)cc1	9.29
COc1ccccc1N1CCN(S(=O)(=O)c2ccc(F)cc2)CC1	4.4
O=C(O)CCc1ccc(-c2ccccc2)n1CC1CCCO1 (stereo not shown)	8.1
